Laboratory results as given in publication PMC6919601, “Identification of Plasmodium dipeptidyl aminopeptidase allosteric inhibitors by high throughput screening” (PLoS ONE, 2019).
Several values for one entry are separate records, joined by “and”; a condition that tells them apart may be missing. Equal values may be shown once. The campaign covered roughly 110,000 compounds. About 230 (0.21%) showed an effect of 50% or more. This is one part of the list.

Target: DPAP1 (Plasmodium falciparum, UniProt Q8IIJ9)
Test: primary screen, percent inhibition; read by cleavage of a fluorogenic dipeptide substrate; higher = more effect of the substance
Parameters: species or system P. falciparum D10 trophozoite lysates; single well
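Further: 30 min substrate incubation versus DMSO and 10 µM JCP410 controls.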

Chain of DPAP1 (Q8IIJ9 whole entry, looked up): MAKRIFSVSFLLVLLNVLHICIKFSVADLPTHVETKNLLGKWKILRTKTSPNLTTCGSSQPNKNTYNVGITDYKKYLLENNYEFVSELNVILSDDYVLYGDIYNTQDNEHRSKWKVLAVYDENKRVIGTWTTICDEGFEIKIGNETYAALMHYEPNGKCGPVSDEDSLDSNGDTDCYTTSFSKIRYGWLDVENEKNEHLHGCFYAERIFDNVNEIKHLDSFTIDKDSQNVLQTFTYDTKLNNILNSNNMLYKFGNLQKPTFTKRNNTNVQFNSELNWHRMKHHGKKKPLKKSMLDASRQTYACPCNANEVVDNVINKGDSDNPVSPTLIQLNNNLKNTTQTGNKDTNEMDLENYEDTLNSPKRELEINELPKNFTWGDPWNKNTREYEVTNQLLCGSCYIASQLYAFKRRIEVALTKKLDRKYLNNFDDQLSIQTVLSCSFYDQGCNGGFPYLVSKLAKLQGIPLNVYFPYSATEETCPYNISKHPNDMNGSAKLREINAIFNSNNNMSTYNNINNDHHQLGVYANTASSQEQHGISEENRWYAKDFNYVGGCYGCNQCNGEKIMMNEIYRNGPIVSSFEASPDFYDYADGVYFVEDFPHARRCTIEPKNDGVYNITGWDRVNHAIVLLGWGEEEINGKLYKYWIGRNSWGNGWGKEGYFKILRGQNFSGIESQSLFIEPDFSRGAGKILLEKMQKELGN

Row | SMILES | % Inhibition @ 10 uM
1 | CCN1CCCC1CNC(=O)c1ccc2c(c1)sc1nc(-c3ccc(C)cc3)cn12 (centres unmarked) | 9.79%
2 | O=C(C1c2ccccc2Oc2ccccc21)N1CCN(Cc2ccccc2)CC1 | -2.8%
3 | Cn1c2ccccc2c2nnc(SCC(=O)N3CCN(C45CC6CC(CC(C6)C4)C5)CC3)nc21 | 2.77%
4 | Cc1cccn2c(=O)c3cc(C(=O)N(C)Cc4ccccc4)n(C)c3nc12 | 3.72%
5 | N=C1S/C(=C\c2ccccc2F)C(=O)N1c1ccccc1F | 6.79%
6 | Cc1ccsc1CN1CCN(c2ccccc2F)CC1 | -3.65%
7 | COc1ccc(NC(=O)c2ccc([N+](=O)[O-])c(C)c2)cc1Cl | -3.79%
8 | CCCC[C@H](NC(=O)[C@H](CS(C)(=O)=O)NC(=O)N1CCOCC1)C(=O)c1nc2ccccc2o1 | -0.214%
9 | CSc1ccc(CN2CCN(c3ncccn3)CC2)cc1 | -0.828%
10 | c1ccc2c(CN3CCCCCCC3)c[nH]c2c1 | -4.61%
11 | CCC1CCCCN1CCCNC(=O)c1ccc2nc(N3CCCCC3)sc2c1 (centres unmarked) | -0.637%
12 | COCCCNC(=O)C(C)n1c2ccccc2c2cnnc(O)c21 (centres unmarked) | -5.87%
13 | Cc1cc(C)n2nc(SCC(=O)Nc3ccc(Cl)c(Cl)c3)nc2n1 | -14.3%
14 | O=C(c1ccco1)N1CCN(C(=O)c2cc3c(s2)-c2ccccc2OC3)CC1 | -4.85%
15 | COc1ccc(C2C(C(=O)NCC3CCCO3)c3ccccc3C(=O)N2C2CCCCC2)cc1 (centres unmarked) | 9.55%
16 | C=C(C)CNc1nc(-c2ccccc2)c(-c2ccccc2)s1 | 0.131%
17 | COc1ccccc1C(=O)N/C(=C/c1ccc2c(c1)OCO2)C(=O)Nc1cccc(C(=O)O)c1 | -1.06%
18 | Cc1nnc(NC(=O)CSc2ccc3nnc(-c4cccc(F)c4)n3n2)s1 | 1.93%
19 | COC(=O)c1ccn(Cc2ccccc2Cl)n1 | -5.53%
20 | Cc1[nH]nc(NC(=O)C(C(F)(F)F)C(F)(F)F)c1-c1ccccc1 | -8.36% and -1.61%
21 | CC1CCCCN1c1nc2c(S(=O)(=O)c3ccccc3)nnn2c2ccccc12 (centres unmarked) | -4.85%
22 | COc1cc(C2C(C#N)=C(N)Oc3[nH]nc(-c4cc(C)sc4C)c32)cc(OC)c1O (centres unmarked) | 4.09%
23 | Cc1oc2c(c1C(=O)NCCc1c[nH]c3ccccc13)C(=O)c1ccccc1C2=O | -3.53%
24 | CCNC(=O)c1cc2c(=O)n3ccccc3nc2n(C2CCCCC2)c1=N | 3.6%
25 | Cn1c(=O)c2c(ncn2CCC(=N)N2CCOCC2)n(C)c1=O | 2.49%
26 | CCOc1ccccc1C(=O)Nc1ccccc1C | -7.08%

Row | SMILES | % Inhibition @ 10 uM
27 | O=C(Nc1ccccc1Oc1ccccc1)c1cccc(F)c1 | 4.81%
28 | COC(=O)/C(C#N)=C/c1cc2c(cc1Br)OCO2 | -6.74%
29 | Cc1cccn2c(=O)c(/C=C(\C#N)C(=O)NCc3ccco3)c(Oc3ccccc3)nc12 | -5.1%
30 | COC(=O)C1=C(C)NC(=O)CC1c1ccccc1 (centres unmarked) | 3.44%
31 | Nc1nonc1C1=NOS(=O)N1 (centres unmarked) | -8.05%
32 | O=C(Cn1c(=O)sc2ccccc21)Nc1ccc(C(=O)O)cc1 | -7.32%
33 | CCCS(=O)(=O)n1nc(-c2ccc(Br)cc2)cc1N | -0.495%
34 | O=C(NCc1cccc(Br)c1)c1cnn(-c2ccccc2)c1-n1cccc1 | 6.35%
35 | CCCCS(=O)(=O)c1c(C(=O)O)ccc2c1C(=O)c1ccccc1C2=O | 1.32%
36 | Cc1ccccc1CN(c1ccc(C(=O)N2CCN(C)CC2)cc1)S(C)(=O)=O | -3.43%
37 | CCOC(=O)c1ccc2[nH]c(C)c(C)c2c1 | 3.53%
38 | O=c1oc2ccc(Br)cc2cc1-c1csc(NC2CCCCC2)n1 | 4.02%
39 | Cc1c2cnn(CC(=O)N3CCC4(CC3)OCCO4)c(=O)c2c(C)n1Cc1ccc(F)cc1 | 1.22%
40 | CC1CCN(CCC(=O)N2CCCc3c2c(=O)oc2ccc(O)cc32)CC1 | 1.52%
41 | COCCNC1CCC(C(C)(C)C)CC1 (centres unmarked) | 4.55%
42 | CCOCCCNC(=O)C1CCN(c2ncnc3c2nc2n3CCCCC2)CC1 | 6.35%
43 | CCOc1cccc(/C=C2\SC(=O)N(Cc3ccc(F)cc3)C2=O)c1O | -1.6%
44 | COCCCNC(=O)CN1C(=O)CSc2ncccc21 | -6.01%
45 | CCn1c2ccccc2c2cc(C=O)ccc21 | 2.8%
46 | O=C(N/C(=C\c1ccccc1)C(=O)N1CCN(CCO)CC1)c1ccccc1 | -6.59%
47 | COc1ccccc1C1CN(c2ccccc2)N=C1c1cccs1 (centres unmarked) | -3.8%
48 | COc1ccc(-c2nc(N3CCOCC3)nc3nn4c(C)c(CCC(=O)O)c(C)nc4c23)cc1 | 9.46%
49 | COc1ccc(OCC(=O)NCCN2CCCC2)cc1 | -0.251%
50 | Clc1cccc(CSc2nnc(-c3ccc(Cl)cc3Cl)o2)c1 | 6.86%
51 | COc1ccc(C2C3=C(O)CCCC3=Nc3ccc4nc(C)ccc4c32)cc1OC (centres unmarked) | -1.19%
52 | CCOc1ccc(-c2nc(NC(=O)Cc3csc(C)n3)sc2C)cc1 | -1.11%

Row | SMILES | % Inhibition @ 10 uM
53 | Cc1ccccc1CNC(=O)C(C)n1ccc2cc(S(=O)(=O)N3CCCC3)ccc21 (centres unmarked) | 3.99%
54 | Cc1ccc(-c2nc3c4ccccc4nc(S)n3n2)cc1 | -7.62%
55 | COc1ccc(C)cc1NC(=O)CCC(=O)Nc1cc(C)ccc1OC | -7.14%
56 | Cc1ccc(-c2nnc3n(CCCOC(C)C)c(=O)c4ccccc4n23)s1 | -3.51%
57 | C=CCN(C(=O)c1ccccc1)c1ccc(OC)cc1 | 5.31%
58 | CC(=O)c1cc(-c2ccccc2)n(CC(=O)Nc2nc3c(C)cccc3s2)c1C | 1.47%
59 | COc1cc(CN2CCCN(C)CC2)cc(Br)c1O | -6.21%
60 | c1ccc(CNCc2ccco2)cc1 | -6.22%
61 | Cc1nc(-c2ccccc2)nc2[nH]c(=O)n(-c3ccccc3)c(=O)c12 | -5.62%
62 | CN(Cc1ccco1)C(=O)C1CCCN(c2ncnc3c2nc2n3CCCCC2)C1 (centres unmarked) | 6.99%
63 | CCOc1ccccc1N(CC(=O)Nc1ccccc1-c1ccccc1)S(C)(=O)=O | -7.5%
64 | CN1CCC(N(C)CCc2ccccc2)CC1 | 6.41%
65 | COc1cc(C2C3=C(CC(C)(C)CC3=O)OC3=C2C(=O)CC(C)(C)C3)ccc1O | -4.94%
66 | Cc1cc(CNC(=O)COc2c(F)c(F)cc(F)c2F)c2ccccc2n1 | -6.42%
67 | Cc1cc(C)c2c(=O)cc(C(F)(F)F)oc2n1 | 3.38%
68 | Cc1nc2ccccc2c2oc(C(=O)NCCc3ccsc3)cc12 | -13.2%
69 | COc1ccccc1-c1cc(-c2ccccc2)nc(SCC(=O)c2ccc(-c3ccccc3)cc2)c1C#N | -0.736%
70 | OC1(c2ccc(Cl)cc2)CCN(Cc2ccc(Cl)c(Cl)c2)CC1 | -2.21%
71 | COc1cccc(S(=O)(=O)NCc2ccc(C(=O)Nc3ccc(C)cc3)cc2)c1 | 0.389%
72 | Cc1ccc(C(=O)Cn2nc(-c3ccccc3)c3c(c2=O)CCCC3)cc1 | 4%
73 | COC(=O)c1c(NC(=O)c2ccccc2)sc2c1CCCC2 | -0.414%
74 | CC(C(=O)O)n1ccc2cc(S(=O)(=O)N3CCCC3)ccc21 (centres unmarked) | 1.63%
75 | CS(=O)(=O)c1ccc2nc(NC(=O)C3c4ccccc4Oc4ccccc43)sc2c1 | 0.777%
76 | CCCC(=O)n1nc(-c2ccco2)nc1NCc1ccccc1 | 3.51%
77 | CCc1ccc(C(=O)NC(Cc2c[nH]c3ccccc23)C(=O)O)cc1 (centres unmarked) | -1.47%
78 | COc1ccc(CCN2C(=O)c3c(C)nc4ccccc4c3C2=O)cc1 | -0.228%

Row | SMILES | % Inhibition @ 10 uM
79 | COc1ccc(-c2c(C#N)c(N)nc(OC)c2C#N)cc1 | -3.65%
80 | O=C(NC1CCCCC1)c1ccc(-n2cccc2)cc1 | 2.8%
81 | CCC1=NN(C(=O)COc2cc(C)cc(C)c2)C(O)(C(F)(F)F)C1 (centres unmarked) | 0.472%
82 | CC(Oc1ccc(Cl)cc1Cl)C(=O)NC1CCCC1 (centres unmarked) | -4.13%
83 | CC1(C)CC(=O)C2=C(C1)N(CCN1CCOCC1)C1=C(C(=O)CC(C)(C)C1)C2c1ccc(Cl)cc1 | 1.08%
84 | O=C(Cn1nnc(-c2ccccc2F)n1)NCCc1ccccc1 | -8.85%
85 | CCCCNC(=O)c1cnn2c1NC(c1ccc(Br)cc1)CC2C(F)(F)F (centres unmarked) | -4.39%
86 | C=CCn1c(=N)c(C(=O)NCCc2ccccc2)cc2c(=O)n3ccccc3nc21 | 3.6%
87 | CC(C)CCNc1cnn(C23CC4CC(CC(C4)C2C(=O)O)C3)c(=O)c1Cl (centres unmarked) | 4.33%
88 | O=C1CC(C(=O)Nc2ccccc2)NC(N2CCOCC2)=N1 (centres unmarked) | -2.65%
89 | O=C(c1cccnc1Cl)N(Cc1ccccc1)Cc1ccccc1 | 0.64%
90 | O=[N+]([O-])c1ccc(-n2c3ccccc3c3ccccc32)cc1 | 0.00178%
91 | O=C(NC1CCCC1)c1nc(-c2ccc(Cl)cc2)n2c1CCCCC2 | 6.56%
92 | Cc1ccc(-c2c(C#N)cnc3ncnn23)cc1 | -2.56%
93 | CCC1(CC)Cc2ccccc2C2=C(C(=O)N3CCCCC3)C(=O)C(=O)N21 | -11%
94 | COc1ccccc1-c1cc(C(=O)NCCCn2ccnc2)no1 | 1.37%
95 | COc1ccc(NC(=O)c2ccc(OC(F)F)cc2)cc1OC | -1.63%
96 | Cc1ccc(S(=O)(=O)c2nnn3c2nc(N2CCC4(CC2)OCCO4)c2ccccc23)cc1 | -1.07%
97 | CCC1CCC(N2CCN(CCOCCO)CC2)CC1 (centres unmarked) | -5.31%
98 | c1ccc(CSc2nc3ccccc3s2)nc1 | 3.05%
99 | CC(C)COc1ccc2c(c1)c1c3c(nccn32)CCC1 | 4.54%
100 | CC1CCC(C(C)C)C(OCC(O)CN2CCCCC2)C1 (centres unmarked) | -2.44%
101 | CCCCCO/C(O)=C1/C(C)=NC2=C(C(=O)CC(C)(C)C2)C1c1ccccc1 (centres unmarked) | 25.5%
